From PubChem BioAssay AID1240 (Sanford-Burnham Center for Chemical Genomics, 2008)
Several values for one entry are separate records, joined by “and”; a condition that tells them apart may be missing. Identical values can stand only once. The whole screen tested about 50,000 compounds, of which about 800 (1.6%) showed an effect of 50% or more. The list shows a part of the results.

Molecular target: Bcl-2-like protein 10 (Homo sapiens) (UniProt Q9HD36)
Assay: Phenotype converters, Bcl-B/TR3 peptide binding displacement, primary biochemical FP (AID 1240);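 further: 0% = Bcl-B with tracer peptide and DMSO and 100% = tracer peptide lacking Bcl-B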
Settings: GST-Bcl-B / FITC-TR3 peptide fluorescence polarization; stronger effect = higher value; compound at 3.75 mg/L

UniProt Q9HD36, sequence (Q9HD36 whole entry, looked up): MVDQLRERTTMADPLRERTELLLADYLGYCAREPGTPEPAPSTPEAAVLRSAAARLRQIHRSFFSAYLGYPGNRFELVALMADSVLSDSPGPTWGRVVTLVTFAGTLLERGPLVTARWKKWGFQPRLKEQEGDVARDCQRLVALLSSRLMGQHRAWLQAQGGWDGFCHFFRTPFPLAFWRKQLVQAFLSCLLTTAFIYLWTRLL

| Structure (SMILES) | displacement |
| --- | --- |
| Cc1cc(C)cc(OC(=O)COc2ccc(Br)cc2Br)c1 | -2.9% |
| CCCC1=NN(C(=O)c2ccccc2Cl)C(O)(C(F)(F)F)C1 (stereo unspecified) | 20.7% |
| O=C(Nc1cccc(O)c1)c1cccc(NC(=O)c2cccs2)c1 | 16.1% |
| CC(C)c1c(O)nc(SCC(=O)O)[nH]c1=O | -1.5% |
| O=C(Nc1ccc(Br)cc1)C1CC(=O)N(c2ccccc2)C1 (stereo unspecified) | -13.6% |
| C=CCc1ccccc1OCCOc1cccc(/C=c2\sc3nc4ccccc4n3c2=O)c1 | 13.4% |
| O=C(CCN1C(=O)S/C(=C\c2ccccc2)C1=O)N1CCOCC1 | -0.3% |
| COc1cc2c(cc1NC(=O)CC(C)=O)oc1ccccc12 | -5% |
| CCc1ccccc1NC(=O)c1ccccc1C(F)(F)F | -8.4% |
| Nc1cc(N)c(OCC(F)(F)F)cc1OCC(F)(F)F | 14% |
| O=C(CSc1nnc2c(n1)[nH]c1ccccc12)N(c1ccccc1)c1ccccc1 | -8.9% |
| CC(=O)N/C(=C/c1ccc(Cl)cc1)C(=O)N1CCOCC1 | 9% |
| O=C(Nc1nccs1)C(c1ccccc1)c1ccccc1 | 2.7% |
| COc1ccc(OC)c(N(CC(=O)Nc2cccc(Cl)c2)S(=O)(=O)c2ccc(OC)c(OC)c2)c1 | 4.1% |
| Cc1cc(C)nc(Nc2nc(=O)c3ccccc3s2)n1 | 5.5% |
| Cc1ccc(/C=C/C(=O)Nc2ccc([N+](=O)[O-])cc2)o1 | 11.8% |
| O=C(CSc1nc2ccccc2s1)N=Nc1c(O)n(CN2CCCC2)c2ccccc12 | -9.3% |
| CC1=NN(c2nc(-c3cc4ccccc4[nH]3)cs2)C(=O)C1C (stereo unspecified) | -22% |
| COc1ccc(/C=C2\SC(=O)N(c3ccccc3OC)C2=O)cc1 | 15.2% |
| CC(=O)Nc1ccc(S(=O)(=O)Nc2cccc(C(C)=O)c2)cc1 | -7.3% |
| COc1ccc(NC(=O)N2CCN(c3ccc([N+](=O)[O-])cc3)CC2)cc1 | -5.5% |
| COc1cc(OC)cc(C(=O)Nc2ccc(NC(=O)c3ccco3)c(OC)c2)c1 | -5.3% |
| CC1(C)Cc2ccccc2-c2nnc(-c3cccnc3)n21 | 4.8% and -5.6% |
| Cn1cc(C(=O)N/N=C/c2cccc([N+](=O)[O-])c2)ccc1=O | 1.8% |

| Structure (SMILES) | displacement |
| --- | --- |
| COc1cc(NC(=O)COc2ccccc2C)c(OC)cc1Cl | -6.7% |
| CCCCSc1nnc(-c2ccccc2N)c(=O)[nH]1 | 8.6% |
| CN1CCN(C(=O)CN2C(=O)/C(=C/c3ccccc3)SC2=S)CC1 | 9.9% |
| CCCCOc1ccc(C(=O)NCCc2ccc(Cl)cc2)cc1 | -16.2% |
| CC(=O)C1=C(O)C(=O)N(CCN2CCNCC2)C1c1cccc([N+](=O)[O-])c1 (stereo unspecified) | -6.9% |
| CC(=O)Oc1ccc2nc(-c3ccc([N+](=O)[O-])c(C)c3)oc(=O)c2c1 | 16.1% |
| COc1cc(C=C2C(=O)NC(=S)NC2=O)ccc1OCCO | -5.9% |
| Cc1ccc(C(C)C)c(OC(=O)c2ccccc2Br)c1 | 5.8% |
| CC1=NN(c2ccc(Cl)c(Cl)c2)C(=O)/C1=C/c1cccc([N+](=O)[O-])c1 | 8.5% |
| CCOC(=O)CC(=O)Nc1ccccc1C(=O)OCC | 7.3% |
| O=C(O)/C(=C/C(=O)c1ccccc1)N=Nc1c(O)[nH]c2ccccc12 | 13.6% |
| CC(C)CC(=O)Nc1cc(C(=O)O)cc(C(=O)O)c1 | 13.4% |
| C/C(=N\NC(=O)c1cccc(Br)c1)c1ccccn1 | -1.6% |
| COc1ccc2occ(C(=O)c3ccccc3Cl)c(=O)c2c1 | 9.1% |
| CCOC(=O)c1c(NC(=O)c2cc3ccccc3oc2=O)sc(C)c1CC | 6.7% |
| N#Cc1cnc(N)c(C#N)c1Nc1ccccc1 | 6.5% |
| COc1cc(NC(=O)COc2ccc3ccccc3c2)cc(OC)c1 | 11.4% |
| Cc1cccc(N2C(=O)c3ccc(C(=O)O)cc3C2=O)c1C | 2.2% |
| O=S(=O)(c1ccc2ccccc2c1)N(CC(O)CN1CCCCC1)c1ccccc1 (stereo unspecified) | -0.4% |
| COc1cc(/C=N\NC(=O)CNc2ccc(C)cc2)ccc1OC(=O)c1cccs1 | 8.5% |
| Cc1ccc(C2Nc3ccccc3C(=O)N2Cc2ccccc2)cc1 (stereo unspecified) | 12.9% |
| COc1ccc(OC)c(C(O)c2nccn2C)c1 (stereo unspecified) | 9.9% |
| Cc1cc(=O)oc2c(C)c(OC(=O)c3ccccc3)ccc12 | 2.5% |
| O=C1OC(c2ccccc2F)=N/C1=C\c1ccc(OC(=O)c2ccccc2Cl)cc1 | 1.5% |

| Structure (SMILES) | displacement |
| --- | --- |
| Clc1ccc(Cc2nnn(-c3ccccc3)n2)cc1 | 5.2% |
| O=C(N/N=C/c1cccc(Cl)c1)c1ccncc1 | 1.8% |
| CC(=O)Oc1ccc(C(=O)Nc2cccc(C(=O)O)c2C)cc1 | 3.9% |
| COc1cc(NC(=O)c2ccc3c(c2)C(=O)N(C2CCCCC2)C3=O)c(C(=O)O)cc1OC | 4% |
| COc1ccc(CSc2nnnn2-c2ccccc2)cc1 | -10.4% |
| O=c1c2c(nc3cc(-c4ccc(I)cc4)[nH]n13)CCS2 | 97.5% |
| Cc1ccc(C(C)(C)C)c(OCC(=O)Nc2ccccc2F)c1 | 3.3% |
| O=C(Nc1cccc2ccccc12)C1OC2OC3(CCCCC3)OC2C2OC3(CCCCC3)OC12 (stereo unspecified) | -7.4% |
| Cc1ccc(N(CC(=O)Nc2ccc(I)cc2)S(C)(=O)=O)cc1Cl | 7.9% |
| C=CCN1C(=O)/C(=C\c2cc3c(cc2[N+](=O)[O-])OCO3)SC1=S | 10.8% |
| COc1ccc(Cl)cc1C(=O)Nc1ccccc1Br | 30.2% |
| Oc1ccccc1/C=N/Nc1c(Cl)cc(Cl)cc1Cl | 3.3% |
| CCOc1ccc(-c2cc(C(=O)N/N=C/C=C/c3ccccc3)[nH]n2)cc1 | -2.6% |
| CS(=O)(=O)N(CC(=O)Nc1ccc2ccccc2c1)c1ccc(Br)cc1 | -0.4% |
| COc1cc(C(=O)N2CC(C)OC(C)C2)c([N+](=O)[O-])cc1OC (stereo unspecified) | -0.2% |
| COc1ccc(C2C(C(=O)OC(C)(C)C)C(=O)CC(C)(O)C2C(=O)OC(C)(C)C)cc1OC (stereo unspecified) | -11.5% |
| CCOc1cc(OCC)cc(C(=O)Nc2ccc(Cl)cn2)c1 | 12.3% |
| COc1ccc(CCNC(=O)c2ccccc2[N+](=O)[O-])cc1 | -5.9% |
| O=C(Nc1cccc(Oc2ccc(C(=O)O)c(C(=O)O)c2)c1)c1ccc(-c2ccccc2)cc1 | 9.2% |
| O=C(NC(=S)Nc1ccc(O)c(-c2nc3ccccc3o2)c1)c1ccco1 | 15.2% |
| COc1ccc(C(OC(=O)NC(O)C(Cl)(Cl)Cl)P(=O)(OC(C)C)OC(C)C)cc1 (stereo unspecified) | -0.3% |
| CCOc1cc(OCC)cc(C(=O)Nc2cccc3nsnc23)c1 | 13.4% |
| Cc1ccc(C(=O)Nc2ccc(Cl)cc2Cl)o1 | 7.5% |
